Data from patent US20220411511A1 (STCUBE, published 2022).

T1: recombinant human CD80-Fc chimera protein (R&D Systems) (human, UniProt P33681 35-242)
T1 construct: Bought reagent; not shown: Fc part
T1 sequence (looked up): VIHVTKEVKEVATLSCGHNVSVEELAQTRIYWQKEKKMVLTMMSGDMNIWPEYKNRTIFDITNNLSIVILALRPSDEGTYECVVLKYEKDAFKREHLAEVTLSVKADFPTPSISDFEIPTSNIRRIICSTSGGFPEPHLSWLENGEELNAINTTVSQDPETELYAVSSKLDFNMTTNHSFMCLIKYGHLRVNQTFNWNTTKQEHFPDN

T2: recombinant human CD86-Fc chimera protein (R&D Systems) (human, UniProt P42081 26-245, limits assumed)
T2 construct: Bought reagent; also called recombinant human CD86-Fc protein; not shown: Fc part
T2 sequence (looked up): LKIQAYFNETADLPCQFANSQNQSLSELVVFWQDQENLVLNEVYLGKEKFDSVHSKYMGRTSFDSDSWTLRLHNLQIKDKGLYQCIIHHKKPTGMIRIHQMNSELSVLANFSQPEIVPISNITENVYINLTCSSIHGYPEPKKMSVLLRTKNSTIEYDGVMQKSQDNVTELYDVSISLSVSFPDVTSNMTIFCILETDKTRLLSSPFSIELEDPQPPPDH


Key:
[1] = target: T1, recombinant human CD80-Fc chimera …; experiment: live-cell imaging (IncuCyte) of 293T cells expressing CTLA-4 WT with CD80-Fc and anti-human Alexa Fluor 488 conjugate
Excerpt: (§1) The secondary antibodies used were anti-human Alexa Fluor 488 dye conjugate (Life Technologies). The fluorescence intensity of Alexa Fluor 488 dye was then monitored using a real-time microscope IncuCyte (Essen BioScience, Ann Arbor, Mich., USA).

[2] = target: T2, recombinant human CD86-Fc chimera …; experiment: live-cell imaging (IncuCyte) of 293T cells expressing CTLA-4 WT with CD86-Fc and anti-human Alexa Fluor 488 conjugate
Excerpt: as §1

[3] = target: T1, recombinant human CD80-Fc chimera …; experiment: live-cell imaging (IncuCyte) of 293T cells expressing CTLA-4 2NQ with CD80-Fc and anti-human Alexa Fluor 488 conjugate
Excerpt: as §1

[4] = target: T2, recombinant human CD86-Fc chimera …; experiment: live-cell imaging (IncuCyte) of 293T cells expressing CTLA-4 2NQ with CD86-Fc and anti-human Alexa Fluor 488 conjugate
Excerpt: as §1

Row | binding result [1] | binding result [2] | binding result [3] | binding result [4] | Binder
1 | binds | binds |  |  | CTLA-4 WT expressed on 293T cells (receptor, N-linked glycosylation at N113 and N145, also called wild type CTLA-4; Flag-tagged CTLA-4 WT) not shown
2 |  |  | no binding | no binding | CTLA-4 2NQ (non-glycosylated form) expressed in 293T cells (receptor, also called CTLA-4 2NQ mutant; unglycosylated CTLA-4) not shown
